Data published in the supplement of paper PMC4166925.
± gives the standard deviation of the averaged measurements. Whole data set: some 33,000 sequences, median “E-score (dimensionless, -0.5 to 0.5)” near -0.046, cut for the highest 2% near 0.36. The list shows a part of the results.

System: T1, SpTbr T-box DNA-binding domain (GST fusion)
T1 sequence: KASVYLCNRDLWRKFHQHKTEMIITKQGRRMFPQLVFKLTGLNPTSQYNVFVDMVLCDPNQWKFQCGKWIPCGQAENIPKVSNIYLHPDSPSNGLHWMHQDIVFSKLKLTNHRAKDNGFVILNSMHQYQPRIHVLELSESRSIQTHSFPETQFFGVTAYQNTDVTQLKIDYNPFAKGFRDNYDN
Experiment: PBM E-score of 8-mer (E-score (dimensionless, -0.5 to 0.5)); Tbr is Tbrain of the sea star Patiria miniata (Pm) or the sea urchin Strongylocentrotus purpuratus (Sp); higher = stronger binding preference; most listed sequences are background and not binding sites
Conditions: the construct has about 5 more residues each side
Procedure, shortened: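 GST-fused Tbr T-box DNA-binding domains (the whole T-box plus about five flanking residues) were expressed in BL21 E. coli at 20 °C and purified by glutathione affinity chromatography. Universal Agilent oligonucleotide arrays were made double-stranded by primer extension, incubated with 200 nM protein in PBS (pH 7.5), then scanned and quantified. Every ungapped 8-mer was scored from probe intensities. The Universal PBM Analysis Suite gave each word an enrichment E-score, averaged over duplicate arrays.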

Sequence	PBM E-score of 8-mer
CCTTACAG	-0.053 ± 0.022
TTGATCAA	-0.102 ± 0.13
ACGGACGA	-0.259 ± 0.011
CAGTAACA	0.0948 ± 0.081
CCAAGCCC	-0.178 ± 0.039
GTTGCGGA	-0.0654 ± 0.043
ATGTTTTA	-0.115 ± 0.0069
AGCATCTG	-0.116 ± 0.028
TAACCTGA	-0.0659 ± 0.025
AGAGAGCC	-0.273 ± 0.027
GTCACCAA	0.208 ± 0.011
AATGGGGA	-0.233 ± 0.012
TGGGGGAA	-0.173 ± 0.013
CCACGGTA	-0.151 ± 0.022
ACGCGCTG	0.212 ± 0.04
GACACAAC	0.237 ± 0.01
AAACAGTA	-0.134 ± 0.028
GCATATGA	0.0192 ± 0.026
AATGGGCG	0.0853 ± 0.015
AAGAGTTA	-0.033 ± 0.033
CGAGCCTA	-0.0103 ± 0.057
CCTTTAGC	0.0867 ± 0.017

Sequence	PBM E-score of 8-mer
CATACCGC	0.0954 ± 0.022
AGCTCGTG	0.0828 ± 0.036
GCCTCCAC	-0.0279 ± 0.1
ACCGATCC	-0.0589 ± 0.03
AAACGTTT	-0.247 ± 0.024
CTGCACGA	-0.111 ± 0.086
CTGTGCCC	-0.109 ± 0.02
AGTGTTCA	0.0725 ± 0.083
GAGGAGAC	-0.0414 ± 0.035
ACCCGTCC	-0.195 ± 0.011
GAAACCAA	-0.048 ± 0.0014
AAGCGCGC	0.0762 ± 0.0076
ACGTGCTG	0.182 ± 0.014
TCCTAGAA	-0.216 ± 0.051
ATAGGGCC	-0.189 ± 0.042
TCCGGGCA	-0.0678 ± 0.044
CCGAGTTC	-0.222 ± 0.058
CCTCGATC	-0.0518 ± 0.012
CGATACGC	0.0406 ± 0.082
CACCAATC	0.221 ± 0.011
ACGAGTCT	-0.094 ± 0.033
CTGGCAGA	-0.0862 ± 0.012

Sequence	PBM E-score of 8-mer
CTACGTCA	-0.0328 ± 0.065
CACGTTAG	0.3 ± 0.018
GTCAACTA	0.145 ± 0.071
ACAGCGGT	0.0363 ± 0.033
GGCGTTAA	0.387 ± 0.0042
ATCACGGA	0.0298 ± 0.035
CCGTGTCG	0.146 ± 0.09
ACAGAGCC	-0.143 ± 0.019
ACTCGATA	0.182 ± 0.058
CATCGAAA	-0.181 ± 0.15
AATGTCGG	0.012 ± 0.0061
CCCCTATA	-0.2 ± 0.056
AATACGCG	0.0971 ± 0.084
TATCATCA	-0.0576 ± 0.018
ATATTGGG	-0.214 ± 0.0041
CCAAAGCG	0.136 ± 0.035
CATGTCAA	-0.00622 ± 0.077
AGTTAACT	-0.241 ± 0.042
GAATCAGC	-0.196 ± 0.017
AATGACCC	-0.0829 ± 0.0026
AGAGCGCG	0.147 ± 0.014
ATCTCAAC	0.00654 ± 0.026

Sequence	PBM E-score of 8-mer
ACAGGGTG	0.34003 ± 2.1e-05
CCCTATTA	-0.181 ± 0.052
CAGGCCAA	-0.0765 ± 0.031
CAATGAAC	-0.00173 ± 0.023
ACACCACG	0.332 ± 0.018
CTATCGTA	-0.131 ± 0.048
CAATTTTC	-0.0241 ± 0.045
AGATCCTC	-0.168 ± 0.027
ACCATGAG	0.0145 ± 0.03
AGGGGGCA	-0.264 ± 0.051
CGATCCCA	-0.117 ± 0.069
AAGAAACT	-0.00543 ± 0.041
ATCTGTTA	0.244 ± 0.028
ATTATGGC	-0.0847 ± 0.046
CAAAATGA	0.0486 ± 0.062
GTGGTATA	-0.0312 ± 0.084
AACATAAT	0.0816 ± 0.016
CCTTATCC	-0.109 ± 0.027
CCCCCTGA	-0.114 ± 0.036
ACGAGCAA	-0.0965 ± 0.013
